Laboratory results: PubChem BioAssay AID720709 (National Center for Advancing Translational Sciences (NCATS), 2013)
The whole screen tested about 360,000 compounds, of which about 520 (0.14%) were called active. The inconclusive results got no clear call from the source; some entries with a clear call stand among them for comparison. The call rests on the fitted dose curve; in most records, active means well fitted inhibition curve with a large enough effect; inconclusive means small, poorly fitted or top-dose-only effect; inactive means no such curve, though single readings can be large or run the other way. No potency is given beside an inconclusive call; the fits are too rough.

What follows are compounds tested against Rap guanine nucleotide exchange factor 3 (Homo sapiens) (UniProt O95398) (assay: qHTS for Antagonist of cAMP-regulated guanine nucleotide exchange factor 3 (EPAC1): primary screen). Conditions: EPAC1 GEF assay, Rap1b-BODIPY-GDP exchange fluorescence; activity change, negative = inhibition: at 115 µM (top of the series).
Chain of UniProt O95398 (O95398 whole entry, looked up): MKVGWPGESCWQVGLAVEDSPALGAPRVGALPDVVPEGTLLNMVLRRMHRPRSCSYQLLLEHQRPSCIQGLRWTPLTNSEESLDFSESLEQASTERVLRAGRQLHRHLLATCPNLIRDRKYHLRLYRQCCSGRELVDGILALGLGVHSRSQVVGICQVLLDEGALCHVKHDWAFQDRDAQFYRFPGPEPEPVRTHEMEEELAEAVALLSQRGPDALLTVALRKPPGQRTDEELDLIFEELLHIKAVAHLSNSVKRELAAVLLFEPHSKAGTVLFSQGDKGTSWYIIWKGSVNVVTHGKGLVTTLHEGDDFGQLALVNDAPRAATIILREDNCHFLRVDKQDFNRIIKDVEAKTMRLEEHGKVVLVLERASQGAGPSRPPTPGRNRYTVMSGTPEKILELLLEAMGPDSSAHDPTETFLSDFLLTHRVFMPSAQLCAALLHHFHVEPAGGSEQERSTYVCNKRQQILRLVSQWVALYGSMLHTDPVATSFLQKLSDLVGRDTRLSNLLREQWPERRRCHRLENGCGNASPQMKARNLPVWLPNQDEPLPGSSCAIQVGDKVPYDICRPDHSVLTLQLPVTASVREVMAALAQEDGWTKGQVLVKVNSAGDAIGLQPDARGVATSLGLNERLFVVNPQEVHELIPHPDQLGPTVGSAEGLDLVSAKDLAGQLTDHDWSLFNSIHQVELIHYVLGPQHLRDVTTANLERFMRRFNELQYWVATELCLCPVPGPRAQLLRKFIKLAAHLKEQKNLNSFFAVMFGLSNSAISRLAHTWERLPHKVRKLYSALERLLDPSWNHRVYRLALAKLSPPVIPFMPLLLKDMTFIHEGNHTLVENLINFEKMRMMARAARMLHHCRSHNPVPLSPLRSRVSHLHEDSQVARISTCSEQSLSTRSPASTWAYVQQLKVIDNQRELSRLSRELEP
Further: nearly all actives have a fitted effect of over 50% in size.
Potency means the concentration at half of the fitted maximal effect; tags describe the fitted curve by direction and shape.
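Wherever activity change, negative = inhibition is given: plate controls were vehicle for no effect and positive control for full effect.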

Row | SMILES | Potency | activity change, negative = inhibition
1 | Cc1cc(Br)c2nc3c(c(C(=O)O)c2c1)CCCCC3 | inconclusive [inhibitor, full curve, poor fit] | –
2 | Cc1nc(COc2cccc(Cl)c2)sc1C(=O)/C=C/N(C)C | inconclusive [inhibitor, partial curve] | –
3 | COc1ccc(OC)c(-c2csc(NC(=O)COC(=O)c3ccc(NC(=O)CC#N)cc3)n2)c1 | active: 79.4 µM | –
4 | Cc1cccc(-c2nc(CS(=O)CC(=O)NC(C)CCc3ccccc3)c(C)o2)c1 (stereo not drawn) | inconclusive [inhibitor, full curve, poor fit] | –
5 | CCOC(=O)[C@]12CCCC=C1N(CCC1=CCCCC1)C(=O)[C@H](CC(=O)N1CCN(C(=O)c3ccco3)CC1)C2 | – | inactive: 1.32%
6 | Cc1cc(Br)cn2c(Cc3ccsc3)c(-c3ccc(F)cc3)nc12 | – | inactive: -2.23%
7 | CCOC(=O)c1c(N)sc2c(OC)c(Br)ccc12 | inconclusive [inhibitor, single point] | –
8 | Cc1ccc(C(=O)N/C(=C\c2cn(C)c3ccccc23)C(=O)NCCCn2ccnc2)cc1 | – | inactive: -5.13%
9 | COc1ccc(-n2c(COc3ccc4c(c3)OCO4)nnc2SCC(=O)O)cc1 | inconclusive [inhibitor, single point] | –
10 | CCCCN(CCCC)CC(O)COc1ccc(Br)cc1 (stereo not drawn) | inconclusive [inhibitor, partial curve] | –
11 | O=C(CSCCN1C(=O)c2ccccc2C1=O)Nc1ccc2ccccc2c1 | inconclusive [inhibitor, full curve, poor fit] | –
12 | CCCCC[C@@H]1C=C(C(=O)O)[C@H](c2ccc(Cl)c(Cl)c2)N1S(=O)(=O)c1ccc(C)cc1 | inconclusive [inhibitor, partial curve] | –
13 | O=C(COC(=O)c1ccc(Cl)nc1)NCc1ccc(F)cc1 | inconclusive [inhibitor, single point] | –
14 | COc1ccc(/C=N/Nc2nc3ccccc3s2)cc1O | inconclusive [inhibitor, single point] | –
15 | CCOc1ccc(CN(C)C(=O)CNC(=O)c2ccc3ccccc3c2)cc1OC | inconclusive [inhibitor, single point] | –
16 | Clc1ccc(OCCCc2nc(-c3ccncc3)no2)c(Cl)c1 | inconclusive [inhibitor, single point] | –
17 | CCOC(=O)/C(=C/C=C1\Sc2cc(OCC)c(OCC)cc2N1CC)C(C)=O | – | inactive: 34.3%
18 | CCNC(=O)CC1C(=O)N(c2ccc(C)cc2)C(=O)N1CCC(C)C (stereo not drawn) | inconclusive [inhibitor, full curve, poor fit] | –
